Test results taken from the supplement of paper PMC10338343.
± gives the standard deviation. This is a selection; strong and weak results do not stand in their true shares.

Tested on: MIWI (PIWIL1) piRISC loaded with piRNA #1 (30 nt)
Assay: pre-steady-state target cleavage rate (min^-1); MIWI and MILI are mouse PIWI proteins and EfPiwi is from a freshwater sponge; tags in brackets are library labels; higher = faster piRNA-guided slicing of the target
Conditions: guide: piRNA #1 5'p-UGAGGUAGUAGGUUGUAUAGUAUCCAGAGG; auxiliary factor: 500 nM mouse GTSF1
In short: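 For Cleave-'n-Seq, a transcribed, DNA-blocked target RNA library […] met 1 nM active affinity-purified piRISC with one synthetic guide at 33 °C for 0–8 or 0–960 min in HEPES–potassium acetate buffer, with or without 500 nM GTSF1 partner protein. Uncleaved targets were sequenced and normalised to depth and weakly complementary targets, with three trials pooled and k3 capped at 0.0001 min^-1. A burst-and-steady-state fit supplied the pre-steady-state cleavage rate.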
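Note: 1 nM active piRISC with 0.1 nM target library at 33 °C single turnover.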

Sequence	pre-steady-state target cleavage rate
GGAGACGAUACUAUACAACCUACUACGACA	0.58 ± 0.055
GGAGACGUUACUAUACAACCUACAACCUCA	0.539 ± 0.041
GGAGACCUAUCUAUUCAACGUACUACCUCA	0.00683 ± 0.0026
GGAGACCUAUGAAUACAACCAUGAUGGAGA [g11:g18:cont:t1A]	< 0.0001
GGAGACCUUACAUAUACAACCUACUACCUCA	0.474 ± 0.051
GGUCUGGAUACUAUACAACCUACUACACUCA	0.799 ± 0.14
GCUCUGGAUAGUUUACAACCUACUACCUCA	0.904 ± 0.04
GGAGACCUAUGUAUAACAACCUACUACCUCA	0.00609 ± 0.0039
GCUCUGGAUUCUAUACAACCUAGUACCUCA	0.23 ± 0.035
GGAGACGAAACUAUACUACCUACUACCUCA	0.484 ± 0.041
GGAGACCUUACUAUACAACCUACUACCUCA [g2:g22:cont:t1A]	1.52 ± 0.11
GCUCUGGAUACUAUACAACCAACUACCACA	0.153 ± 0.018
GGAGACCUAUCUAUACUACCUUCUACCUCA	0.00801 ± 0.0025
GCUCUGGAUACUAUUCAACCUACUACCUGA	0.811 ± 0.11
GGACUGCAUACUAUACAACCUACUACCUGA	0.496 ± 0.1
GCUCUGGAUACUAUAGAACCUACUAGCUCA	0.0073 ± 0.0034
GGAGUGGAUACCAUACAACCUACUACCUCA	1.72 ± 0.084
GGAGACCUAUGUAUACAACCUACUACCUCCA	0.108 ± 0.015
GGAGACCUUACUAUACAACCUACUUCCUGA	0.11 ± 0.02
GGAGACCUAUGAUAACAACCUACUACCAGA	< 0.0001

Sequence	pre-steady-state target cleavage rate
GGAGACCUAUCUAUACAUCCUUCUACCUCA	0.0301 ± 0.0063
GGAGAGGAUACUAUAGAACCUACUACCUCA	0.993 ± 0.061
GGAGUGGAUACUAUUCAACCUACUACCACA	0.431 ± 0.039
GGUCUGGAUACUAUACAACCUACUACGUGA	0.151 ± 0.042
GGUCUGCAUACUAUACAACCUACUUCCUCA	0.0157 ± 0.0051
GGAGACAAUACUAUACAACCUACUACCUCA	1.81 ± 0.098
GGACUGGAUACUAUACAUCCUACUACCACA	1.43 ± 0.12
GGAGACCUAUGUUUACAACCUACUACGUCA	0.00372 ± 0.0036
GGAGACCUAUCUAUGACAACCUACUACCUCA	0.154 ± 0.023
GGAGUCGAUACUAAACAACCUACUACCUCA	1.53 ± 0.1
GGACUGGAUACUAAUGAACCUACUACCUCA	0.201 ± 0.037
GCUCUGGAUACUAUACAACCUAGCUACCUCA	0.208 ± 0.022
CCUCUGGAUACUAUACAACCUACUGACCUCA	1.02 ± 0.058
CCUCUGGAUUCUAUACAACCUACUUCCUCA	0.421 ± 0.032
GGACUCGAUACUAUACAACCUACUUCCUCA	0.0113 ± 0.0038
GGAGAGGAUACUAAACAACGUACUACCUCA	0.172 ± 0.023
GGAGACCUAUGUUUACAACCUACUACCUCA	0.00469 ± 0.004
GGAGAGGUACUAUACAACCUACUACCUCA	0.483 ± 0.042
GGUGUGGAUACUAUACAACGUACUACCUCA	0.718 ± 0.041
GGACUGGAUACUAUACCAACCUACUACCUCA	0.0343 ± 0.012
